# According to the supplement of paper PMC3334620:
# Over roughly 33,000 sequences, “E-score (-0.5 to 0.5)” has its median near -0.04; the highest 2% begin near 0.36. The list shows a part of the results.
# Biological target: T1, Hmlalpha2 (UniProt P0CY09)
# T1 sequence: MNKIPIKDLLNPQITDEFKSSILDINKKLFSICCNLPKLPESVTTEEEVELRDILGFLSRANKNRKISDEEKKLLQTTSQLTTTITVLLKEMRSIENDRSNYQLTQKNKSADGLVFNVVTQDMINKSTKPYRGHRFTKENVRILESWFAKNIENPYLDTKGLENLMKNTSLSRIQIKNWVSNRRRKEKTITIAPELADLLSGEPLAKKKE
# Assay: PBM E-score (8-mer binding enrichment) (E-score (-0.5 to 0.5)); higher = stronger / more preferred TF binding; most listed sequences are background and not binding sites
# Details: protein concentration: 200 nM; construct: GST-full length
# Summary of the method: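 GST-tagged yeast TFs (full-length or DNA-binding domain) were made by PURExpress in vitro transcription/translation and applied at about 100-200 nM to universal all-10-mer Agilent arrays. The arrays were made double-stranded by primer extension, on fresh or once-stripped slides. Bound protein was detected with fluorescent anti-GST, and scans were normalised with masliner. Each ungapped eight-base word, pooled with its reverse complement, received an E-score (modified Wilcoxon-Mann-Whitney statistic) from the Universal PBM Analysis Suite.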
row,Sequence,PBM E-score
1,TATAAGCA,-0.028
2,GTACCTGA,0.101
3,AAGCACTG,-0.0328
4,CAAGGCAC,-0.149
5,GTAGTTCA,0.109
6,CCCCGGGC,-0.306
7,CTGTGGAC,-0.199
8,ATGGAGCC,-0.208
9,TAATGTGA,0.19
10,AGAAGTTG,-0.192
11,AGTGGGGG,-0.391
12,AATATGCT,0.0361
13,CGGCCATC,-0.289
14,ACGAATCA,0.172
15,CAATCCTC,-0.132
16,TGACGCAA,0.06
17,AACTGCAT,0.208
18,CACCGGCG,-0.12
19,AACCTGAT,0.0152
20,AATACTGT,0.135
21,AATATAAG,0.166
22,CCAGCTTA,0.0756
23,GGCAGAGA,-0.19
24,GGATCGAC,-0.16
25,ACCGTACG,-0.038

row,Sequence,PBM E-score
1,ATTTGAAA,0.106
2,ACAACCCT,0.124
3,ACATCAAA,0.0633
4,CCAAAGGA,-0.0297
5,AGAGATGC,-0.13
6,ATGTCCAG,-0.112
7,ATCCGGAT,-0.189
8,ATCCGGTA,-0.0689
9,AGAATTTC,-0.125
10,ATGTACAG,0.289
11,GCTTATCC,-0.079
12,CAATTCGA,-0.0422
13,CGACGTAG,-0.0597
14,CCAGGTAG,-0.145
15,CAGTCCAC,-0.121
16,ATCAGGAT,-0.146
17,CTTCAAAG,0.0797
18,ACCCTAGA,0.0131
19,CAGTTTTA,0.0938
20,ACTAAAGA,-0.0824
21,AGTTACCC,0.0542
22,GCCAATGA,-0.222
23,GACGCTGC,-0.0607
24,CGTGAGGA,-0.199
25,GGACCGCA,-0.158

row,Sequence,PBM E-score
1,ACTCAACA,0.342
2,AGACGCAG,-0.0258
3,CTTACCGC,-0.0699
4,CTACCAAC,0.205
5,CACAGCCG,-0.041
6,CTCAGAAC,0.0524
7,CCGTTAAA,0.125
8,AGTCCTTA,-0.129
9,AACATCGA,0.248
10,ATCACAAA,0.0688
11,GCCAGGGA,-0.249
12,CGGTTCAA,-0.133
13,GGGGTAAC,-0.0416
14,AGCGTGGA,-0.239
15,ATTGCTAG,-0.0101
16,ACAGGCTC,0.0674
17,GGAGCTCA,-0.0831
18,CATCCGAG,-0.207
19,CGTGTTAA,0.481
20,GGCACACA,0.147
21,GCTTTCAA,0.141
22,CGTGCCAC,-0.0851
23,CGACAGAA,-0.181
24,GAGTCTAA,-0.0698
25,CGGCTACG,0.0372

row,Sequence,PBM E-score
1,ACAAAGGG,-0.0246
2,AGAGAACG,0.0554
3,ATGTTTAA,0.387
4,AGAAGTCA,0.0742
5,CTCCTGCA,-0.0645
6,AGGCGCGC,-0.169
7,ATACTGTC,0.0244
8,AAGGGTTA,-0.0714
9,ATTTTGCG,-0.0329
10,CCGTCGAG,0.0641
11,GCGCCCCC,-0.267
12,AAATAATT,0.206
13,AATATTCC,-0.00713
14,ACCACCGT,-0.0982
15,AATGAACC,-0.117
16,ACGGGGGG,-0.22
17,AGCCTCAC,-0.307
18,CGGCGCAC,-0.173
19,CCGAATGA,-0.0941
20,AGTAAAAA,0.196
21,GCTCTGTA,0.0723
22,AGTAGGGA,-0.0827
23,ATCTCCTC,-0.169
24,CTACGCTC,-0.00715
25,CGTTTGAA,0.0215

row,Sequence,PBM E-score
1,CGTACGAG,-0.122
2,GCGTGAAC,0.079
3,AAGGTGGC,-0.1
4,CTATGAAG,-0.149
5,ATGCGCAT,0.357
6,AATAGTAC,0.0869
7,CGATGAGC,-0.23
8,ATCGGGCG,-0.204
9,CAACAAAG,0.236
10,CCGCAATA,0.0856
11,ACCCGGCA,-0.214
12,GACGCCGC,-0.121
13,ACAGTACG,0.101
14,GATACGAA,0.134
15,ATACGTTC,0.038
16,CAAATCGA,0.112
17,GGTGCTTA,-0.0864
18,ACTCTATC,-0.0301
19,AATAAGGT,-0.0514
20,ATGATAAG,0.218
21,ACAAGCGT,0.235
22,ATCTAGGA,-0.11
23,CGGCTCCA,-0.265
24,ACCAATTC,-0.0945
25,CAAACAGA,-0.1

row,Sequence,PBM E-score
1,ATTCCGCC,-0.176
2,CATGTTGC,0.334
3,CCAGTGCG,-0.241
4,ATCTTTAG,-0.0388
5,CCGATGAC,-0.0935
6,AGTCGCGC,-0.155
7,TATACGCA,0.345
8,CCACTCGG,-0.126
9,ACAGCGAT,-0.0205
10,CGATGACC,-0.101
11,CGTCCTGC,-0.174
12,CTGATGCA,-0.0433
13,ATGAATCC,-0.0534
14,GCATTCCA,-0.11
15,ATGGTGAA,-0.0612
16,AAAACTAA,0.286
17,CGCGAAAC,-0.00375
18,AGCGCAGA,-0.145
19,CGTACGTA,0.15
20,CGCATCCC,-0.195
21,CTCATATA,-0.0227
22,GTTAAGTA,0.318
23,AATATCGA,0.0197
24,CGCCGGTA,-0.236
25,ACGGGCCT,-0.204

row,Sequence,PBM E-score
1,CAGCCGAA,-0.0986
2,CACGGGAG,-0.105
3,GATCCGGC,-0.293
4,AAACTATT,0.0334
5,CAATAGGA,-0.00166
6,CGAACCCG,-0.299
7,ACAAACGC,0.16
8,ACGCCGAA,-0.199
9,CATCAATA,0.115
10,ACCGATAT,-0.0792
11,CGAAACCA,0.0905
12,AACATTAC,0.332
13,AACAACAC,0.375
14,CCATTCGG,0.0669
15,AAGAGACT,-0.103
16,AGATATCT,0.0526
17,CTCGGTAA,-0.0493
18,TAGTAATA,0.259
19,AGATGGGC,-0.319
20,ACTAGGGA,-0.14
21,ACTACCAT,-0.00403
22,AAGCTTAT,0.101
23,CACGAATA,0.195
24,CAAAGTAC,0.221
25,AATTAAAC,0.259

row,Sequence,PBM E-score
1,AGGCTTAG,8e-05
2,GCAAGGAA,-0.16
3,ACCCGTAT,-0.0485
4,GCGTCTAC,0.0343
5,AGATTCTA,0.0504
6,ATACTACG,0.161
7,CAGCCATC,-0.189
8,AGCGGGCG,-0.142
9,CAGGTCGG,-0.211
10,GCAGGAGA,-0.111
11,ACCACTTA,0.0802
12,CTATCCGC,-0.121
13,CTTATTGA,-0.0347
14,GACCCAGC,-0.199
15,TCGCTGAA,0.00606
16,AACGTGCG,0.152
17,ATAAGTGG,-0.0805
18,CGCACCAC,-0.103
19,CTACTTCA,-0.152
20,GCGGACTA,0.0231
21,CGAATTAG,-0.0132
22,CACCTTCG,-0.206
23,GGGTATAC,-0.0009
24,ATGTAGGC,0.169
25,ATACATTG,0.289

row,Sequence,PBM E-score
1,AGGCAACA,-0.136
2,TCGCACAA,-0.0123
3,GGGCGGTA,-0.208
4,AGGCGGAA,0.0848
5,AAACCAAC,0.141
6,ATTATAGG,-0.0361
7,AATTACAC,0.467
8,ATCGTATA,0.0738
9,CAAGTGCA,0.104
10,CAATAAGG,-0.22
11,AAACCTAT,0.071
12,TAATCAAA,0.087
13,GCAATTAC,0.167
14,ATGGCGGC,-0.199
15,ACTGACCA,-0.214
16,CCTCTACG,-0.00282
17,GCAGATCA,0.0679
18,ACCAGGAT,-0.0987
19,CCTCCGGC,-0.257
